Measurements published in the RNAGym collection of RNA variant scans (doi:10.7554/elife.90254).
The source gives no read counts; variants with many changes may rest on few reads.

B1: LINE1-mini (parent)
chain: GGCAGAGCUCAACACAGCGUGGCAAAGUGGCUGUGGCUAGACUGCC

Variants of: B1
Experiment: self-cleavage, relative activity (ratio to wild type); higher = more cleavage; in vitro, sequencing; the parent is a self-cleaving ribozyme

| Variant | self-cleavage |
| --- | --- |
| G2A G19U G27C G33A U34C C42G | 0.42 |
| A12C G21A G29U | 0.02 |
| A24U C31A U34G C37A G44A | 0.02 |
| G2C G5A C8A C18A A25C | 0.09 |
| U28A G30A U34G C45A | 0.03 |
| A6U A16C G17A C18G | 0 |
| U20G G22U A24U | 0.82 |
| A4C C18U U32C U38G A41G | 0.03 |
| G5C C10U G21U | 0.03 |
| G1C C10G A14C A16C U20C C37U | 0.01 |
| G2C G40A G44A | 0.02 |
| G7C G17C A26C G40U | 0.09 |
| C13U G17C G29C | 0.01 |
| A11C C31A C37A C46G | 0 |
| A12C G29A C31G C42U | 0 |
| A12G C13A G29U C45G C46A | 0.09 |
| C3G G27U G33C | 0.04 |
| C10A C23U G33C G35A | 0.03 |
| C3A A11C G33U | 0.04 |
| U9A C10A A12G G30U | 0.02 |
| C10G U20A G35C U43C C45G | 0.02 |

| Variant | self-cleavage |
| --- | --- |
| G1U G5A A24U G30U U34A | 0.01 |
| A6G C13U G36C C42G | 0.02 |
| G2A G7U C10A U20C A26G G36U | 0.02 |
| G7A U9C G17A G22U A26C | 0.06 |
| A4G G19C C23A G40C | 0 |
| C3U G21U G40C | 0.05 |
| G2C G5U G7A A25G G29A G30U C46A | 0.07 |
| G17U G29C U34G C37A A41G U43A C45U | 0.01 |
| G2U A4G G17U A26C C31U G36U C37A A39G A41U | 0.05 |
| G7A A41C C45A | 0.1 |
| A4U G7U C10A | 0.07 |
| C10U G21U C23A | 0.18 |
| C3U A6G A16U A26G C45G | 0.2 |
| C3A A14G C37G A39G | 0.7 |
| A4C C13G C31G G36U G44U | 0.02 |
| G2U U38G C45U | 0.01 |
| A12G U20A C46U | 0.02 |
| G30A C31U G35U U38G A41U | 0.01 |
| G1A G5C G19U A25C C31G | 0.05 |
| C23G U43G C46G | 0.04 |
| C15U A24G G36A | 0.14 |

| Variant | self-cleavage |
| --- | --- |
| C13U G27A G35U | 0.04 |
| G2C A11C C31U A39U | 0 |
| C10G C18U G29C | 0.02 |
| G1C C3G U38A | 0.11 |
| A24U G40A C42G | 0.12 |
| C3A C15G G30U | 0.13 |
| C10U A26G C37A | 0.05 |
| C10U U20A G30U A39C | 0.01 |
| C3A G7C G22U C31U U32A | 0.11 |
| G27U U34C G35U C37A | 0.13 |
| C8A G21U G33C G36U G40A | 0.01 |
| C23U G36U A39G | 0.01 |
| C15G C23G A25C G33U | 0.04 |
| G2C U9A G21A C42A | 0.47 |
| U28A G35A U38G | 0 |
| A4G G36A U38A | 0.06 |
| G2U A12G G27C | 0.01 |
| G5U G27A A39G C45U | 0.03 |
| C15U C23A G30C | 0.07 |
| G1U G19C C23A C42U | 0.03 |
| A25G C31A A39U G44C | 0.01 |

| Variant | self-cleavage |
| --- | --- |
| C8G A25U G29U | 0.13 |
| G19A U34C A39C | 0.02 |
| C10A G27U C31G C46A | 0.04 |
| G2A A25U G33C | 0.07 |
| A6G U20C G22U A25U G30U C37A C46U | 0.02 |
| C13U U28G U32G | 0.01 |
| G2U G5C G30C G36A A41C | 0.02 |
| C23G G35U U38A | 0.04 |
| U9G C18A G33U G35A | 0.02 |
| C3A G7U G35A | 0.54 |
| C15A U28C G40C | 0.15 |
| A6U G44A C45A | 0.09 |
| C8A U28G G44U | 0.67 |
| U20C G40C C42U | 0.1 |
| G5U C15G A25C G29U | 0.01 |
| G1U U20C A39U G40A | 0.05 |
| G7A C8A U9C C18A G33C | 0.05 |
| A12U C13A C23A G27A C31U | 0.03 |
| G2C A11U A16C | 0.01 |
| G1U A12G C42U C46G | 0.02 |
| C3U U28A G35U | 0.13 |
